The RNAGym collection of RNA variant scans (doi:10.7554/elife.90254)
The source gives no read counts; variants with many changes may rest on few reads.

B1: LINE1-mini (parent)
chain: GGCAGAGCUCAACACAGCGUGGCAAAGUGGCUGUGGCUAGACUGCC

Variants of: B1
Assay: self-cleavage, relative activity (ratio to wild type); higher = more cleavage; in vitro, sequencing; the parent is a self-cleaving ribozyme

Variant	self-cleavage
GGCAGAGCUCAACACAGCGUGCGAAAGUGGCUGUGGCUAGACUGUC [G22C C23G C45U]	0.69
GGCAGAGCUCAACACAGCGUGCCGAAGUGGCUGUGGCAAGGCUGCC [G22C A24G U38A A41G]	0.09
GGCAGAGCUCAACACAGCGUGACAAAGUGGCUGUGCCUAGUCUGCC [G22A G36C A41U]	0.21
GGCAGAGCUCAACACAGCGUGACAAAGUGGCUUUGGGUAGACUGCC [G22A G33U C37G]	0.02
GGCAGAGCUCAACACAGCGUGACAAAGUGGCUAUGGCUAGACUUCC [G22A G33A G44U]	0.04
GGCAGAGCUCAACACAGCGUGCCAUAGUGGCUGUGGCUGGACUGCC [G22C A25U A39G]	0.08
GGCAGAGCUCAACACAGCGUGACAAAGUCGCUGUGGCUAGACAGCC [G22A G29C U43A]	0.01
GGCAGAGCUCAACACAGCGUGUCCAAUUUGCUGUGGCCAGACUGCC [G22U A24C G27U G29U U38C]	0.34
GGCAGAGCUCAACACAGCGUGACAAAGAGGCUUUGGCUAGAAUGCC [G22A U28A G33U C42A]	0.23
GGCAGAGCUCAACACAGCGUGACAAAGUGUCUGUGGCGAGACUGCA [G22A G30U U38G C46A]	0
GGCAGAGCUCAACACAGCGUGCCAAUGUGGCUGUAGCUAGACUGCC [G22C A26U G35A]	0.12
GGCAGAGCUCAACACAGCGUGCCAAAGUGGAUCUGGCUAGGCAGCC [G22C C31A G33C A41G U43A]	0.01
GGCAGAGCUCAACACAGCGUGUCCAAGUGGCUGUGGUUAAACUGCC [G22U A24C C37U G40A]	0.03
GGCAGAGCUCAACACAGCGUGACAAAGUUGCUGUGGCUAGACUGCU [G22A G29U C46U]	0.55
GGCAGAGCUCAACACAGCGUGACAAAGUAGUUGUUGCUAGACUGCC [G22A G29A C31U G35U]	0.03
GGCAGAGCUCAACACAGCGUGCCAAAAUGGCUUUGGUUAGACUGCA [G22C G27A G33U C37U C46A]	0.14
GGCAGAGCUCAACACAGCGUGCCAAAGCAGCUGUGGCUAGACUGCC [G22C U28C G29A]	0.14
GGCAGAGCUCAACACAGCGUGCCAAAGUGGCUGUGGUUGGACUGCC [G22C C37U A39G]	0
GGCAGAGCUCAACACAGCGUGACAAACUGGCUGUGGCUAGACUGCA [G22A G27C C46A]	0.48

Variant	self-cleavage
GGCAGAGCUCAACACAGCGUGACAAAGUUGCUGUGGAUAGACUGCC [G22A G29U C37A]	0.06
GGCAGAGCUCAACACAGCGUGACAAAGUGUCUGUGCCUAGACUGCC [G22A G30U G36C]	0.03
GGCAGAGCUCAACACAGCGUGACAAAGUAGCUGUGGCUAUACUGCC [G22A G29A G40U]	0.12
GGCAGAGCUCAACACAGCGUGACAAAGUGGCUGUUGCUAGGCUACC [G22A G35U A41G G44A]	0.02
GGCAGAGCUCAACACAGCGUGCCAAAUUGGCUGUGGCUAGAAUGCC [G22C G27U C42A]	0.04
GGCAGAGCUCAACACAGCGUGACAAAGUCGCUGUGGCGAGACUGCC [G22A G29C U38G]	0.02
GGCAGAGCUCAACACAGCGUGCCAAAGCAGCUGUGGCAAGACUGCC [G22C U28C G29A U38A]	0.02
GGCAGAGCUCAACACAGCGUGACAAAGUAGCUGUGGCUAGACUGCU [G22A G29A C46U]	2.15
GGCAGAGCUCAACACAGCGUGCCAAAGUGGCUGUGGAUAGACUUCC [G22C C37A G44U]	0.04
GGCAGAGCUCAACACAGCGUGACAAAGUGGCUAUGUCUAUACUGCC [G22A G33A G36U G40U]	0.01
GGCAGAGCUCAACACAGCGUGACAAAGUGGCUGUGGCAAGAUUGUC [G22A U38A C42U C45U]	0.09
GGCAGAGCUCAACACAGCGUGCCAAAGUGGCUCUCGCUACACUGCC [G22C G33C G35C G40C]	0.02
GGCAGAGCUCAACACAGCGUGCUAAAGUGGCUGUUGCUAGACUACC [G22C C23U G35U G44A]	0.1
GGCAGAGCUCAACACAGCGUGCCAAAGUCGCUGUGCCUAGACUGCC [G22C G29C G36C]	0.16
GGCAGAGCUCAACACAGCGUGCCAAAGUGAGUGUGGCUAGACUGUC [G22C G30A C31G C45U]	0.04
GGCAGAGCUCAACACAGCGUGACAAAGUGGCUCCUGCUAGAAUGCC [G22A G33C U34C G35U C42A]	0.06
GGCAGAGCUCAACACAGCGUGACAAAGUGGCUGUGACUAGACUGAC [G22A G36A C45A]	0.07
GGCAGAGCUCAACACAGCGUGACAAAGUCGCUGUGCCUAGACUGCC [G22A G29C G36C]	0.03
GGCAGAGCUCAACACAGCGUGCCAAAGUGGCUCUGGCUAAACUGCC [G22C G33C G40A]	0.01

Variant	self-cleavage
GGCAGAGCUCAACACAGCGUGCCAAACUGGCUCUGGCUAGACUGCC [G22C G27C G33C]	0.03
GGCAGAGCUCAACACAGCGUGCCAAAGUGGCUGUGCCUAGACAGCC [G22C G36C U43A]	0.03
GGCAGAGCUCAACACAGCGUGUCGAAGCGGCAGUGGCUAGACUGCC [G22U A24G U28C U32A]	0.07
GGCAGAGCUCAACACAGCGUGCCAUAGUGGCUGUGGCUAGACUGAC [G22C A25U C45A]	0.37
GGCAGAGCUCAACACAGCGUGACAAAGUGCCUGUGUCUAGACUGCC [G22A G30C G36U]	0.05
GGCAGAGCUCAACACAGCGUGCUAAAGUGGCUAUGGCUAGACUGCC [G22C C23U G33A]	0.41
GGCAGAGCUCAACACAGCGUGCCUAAGUGGCUGUGACUAGACUGCC [G22C A24U G36A]	0.13
GGCAGAGCUCAACACAGCGUGCCAAAGUGGUUGUGACAAGACUGCC [G22C C31U G36A U38A]	0.01
GGCAGAGCUCAACACAGCGUGUCGAAGUGGCCGCGGCUAGACUGCC [G22U A24G U32C U34C]	0.07
GGCAGAGCUCAACACAGCGUGCCAAAGUGACUGUGGCUAGACUUCC [G22C G30A G44U]	0.03
GGCAGAGCUCAACACAGCGUGCCAAAGUGGCUGUGGCUAGAAUCCC [G22C C42A G44C]	0.02
GGCAGAGCUCAACACAGCGUGCGACAGUGGCUGUGGCUAGACUGCC [G22C C23G A25C]	1
GGCAGAGCUCAACACAGCGUGCCCAAGUGGCUGUUGCUAGAUUGCC [G22C A24C G35U C42U]	0.02
GGCAGAGCUCAACACAGCGUGACAAACCAGCUGAGGCUAGACUGCC [G22A G27C U28C G29A U34A]	0.52
GGCAGAGCUCAACACAGCGUGCCAACGUGGAUGUCGCUAGAUUGCC [G22C A26C C31A G35C C42U]	0.07
GGCAGAGCUCAACACAGCGUGACAAAGGGACUGUGGUUAGACUGCC [G22A U28G G30A C37U]	0.09
GGCAGAGCUCAACACAGCGUGCCUAAUUGGCUGUUGCUAUACUGCC [G22C A24U G27U G35U G40U]	0.12
GGCAGAGCUCAACACAGCGUGACAAAGUGGCUGUGCCUAGAGUGCC [G22A G36C C42G]	0.35
